Assay results: paper PMC10338342 (2023)

Molecular target: nucleosome core particle: human histone octamer (H2A, H2B, H3.1, H4) wrapped by DNA (human, UniProt P04908; P06899; P68431; P62805)
Experiment: FRET; NCP SHL+5.8; competition with His-MYC-MAX (625 nM)

B1: MYC-MAX bHLH LZ heterodimer (complex)
chain 1: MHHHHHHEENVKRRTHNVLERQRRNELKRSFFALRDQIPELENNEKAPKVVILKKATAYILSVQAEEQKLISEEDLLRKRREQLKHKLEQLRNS
chain 2: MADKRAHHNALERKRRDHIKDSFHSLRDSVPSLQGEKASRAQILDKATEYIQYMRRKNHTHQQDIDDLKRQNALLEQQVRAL
IC50: 5.19 µM
